Experimental data taken from PubChem BioAssay AID1460 (National Center for Advancing Translational Sciences (NCATS), 2008).
Several values for one entry are separate records, joined by “and”; a condition that tells them apart may be missing. Equal entries are not always repeated. Hit rate of the full screen: of about 270,000 compounds, about 5,800 (2.1%) were called active. Inconclusive results, whose numbers are uncertain, are shown with a selection of clear calls. The call rests on the fitted dose curve; in most records, active means well fitted inhibition curve with a large enough effect; inconclusive means small, poorly fitted or top-dose-only effect; inactive means flat fitted curve, though single readings scatter. Potencies beside an inconclusive call are fits to weak or partial responses and may not hold up.

These molecules were tested against Microtubule-associated protein tau (Homo sapiens) (UniProt P10636) (assay: qHTS for Inhibitors of Tau Fibril Formation, Thioflavin T Binding). Conditions: recombinant tau K18 P301L (four-repeat tau fragment), heparin-induced fibrillization, ThT fluorescence; series mostly up to 57.4 µM.
UniProt P10636, sequence (P10636 whole entry, looked up, the tested form may be a part): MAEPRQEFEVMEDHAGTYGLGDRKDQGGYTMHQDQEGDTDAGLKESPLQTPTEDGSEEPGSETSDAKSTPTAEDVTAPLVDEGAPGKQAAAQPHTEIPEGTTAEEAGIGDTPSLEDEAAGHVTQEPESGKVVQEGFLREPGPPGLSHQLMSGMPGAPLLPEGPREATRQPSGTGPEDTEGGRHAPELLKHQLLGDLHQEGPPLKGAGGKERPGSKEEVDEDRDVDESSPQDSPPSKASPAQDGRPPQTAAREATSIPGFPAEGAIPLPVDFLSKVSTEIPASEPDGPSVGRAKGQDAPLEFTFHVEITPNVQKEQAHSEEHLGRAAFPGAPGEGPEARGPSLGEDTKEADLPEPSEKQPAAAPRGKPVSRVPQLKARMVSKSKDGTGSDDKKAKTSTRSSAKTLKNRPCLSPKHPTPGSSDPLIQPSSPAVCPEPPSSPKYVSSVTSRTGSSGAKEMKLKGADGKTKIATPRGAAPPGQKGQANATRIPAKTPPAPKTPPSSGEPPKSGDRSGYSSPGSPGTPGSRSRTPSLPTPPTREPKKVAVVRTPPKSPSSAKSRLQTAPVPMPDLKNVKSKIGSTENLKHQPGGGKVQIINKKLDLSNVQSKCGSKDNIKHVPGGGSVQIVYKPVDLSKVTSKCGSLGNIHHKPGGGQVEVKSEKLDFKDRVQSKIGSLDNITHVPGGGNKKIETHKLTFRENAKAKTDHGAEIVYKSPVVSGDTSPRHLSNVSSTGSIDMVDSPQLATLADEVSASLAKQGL
Summary of the method: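 K18 P301L tau (15 uM + 0.24 uM Alexa 594-tagged), heparin 20 uM, NaOAc pH 7, 6 h 37 C; ThT 30 uM, 1 h RT, ex 450/em 510 nm.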
Further: nearly all actives have a fitted effect of over 55% in size.
Potency means the concentration at half of the fitted maximal effect; tags describe the fitted curve by direction and shape.

Structure (SMILES)	Potency
COc1cccc(CNc2nc3c(-c4cccc(C)c4)nnn3c3ccccc23)c1	inactive
CCOC(=O)N=Nc1c2ccccc2c2nc3no[nH]c3nc12	inconclusive: 17.8 µM [inhibitor, partial curve]
CC(=O)c1ccc(NC(=S)NN2C(C)CCCC2C)cc1 (centres undefined)	inactive
CCOc1ccc(-c2nnc(SCC(=O)NCCc3ccccc3)nc2-c2ccc(OCC)cc2)cc1	inactive
CC(=O)Nc1cccc(NC(=O)CSc2nn3c(=O)c(C)nnc3s2)c1	inconclusive: 28.2 µM [inhibitor, partial curve]
Cc1ccc(C(=O)Nc2onc(C)c2C#N)cc1	inactive
COc1ccc(C)cc1NC(=O)c1ccoc1C	inactive
CCO[C@@H]1OC(C(=O)N2CCN(Cc3ccc4c(c3)OCO4)CC2)=C[C@H](C2CCCCC2)[C@H]1CCCO	inconclusive: 0.355 µM [inhibitor, partial curve]
CCOc1ncccc1C(=O)OCC(=O)c1ccc(Cl)s1	inactive
COc1ccc(CNC(=O)CSc2ccsc2[N+](=O)[O-])cc1	inconclusive: 44.7 µM [inhibitor, single point]
CC1(C)CC(=O)C([N+](=O)[O-])=C(NCCCC(=O)O)C1	inactive
O=C(NCCNc1ccc([N+](=O)[O-])cc1C(F)(F)F)c1ccccc1F	inconclusive: 22.4 µM [inhibitor, partial curve, poor fit]
CCn1c(=O)c(-c2cc(=O)[nH][nH]2)c(O)c2ccccc21	inconclusive: 12.6 µM [inhibitor, partial curve]
Cc1cccc(S(=O)Cc2ccc(C(=O)NC3CCCCCC3)o2)c1 (centres undefined)	inactive
CCCOc1ccc(Cc2nn3c(=O)/c(=C/c4ccco4)sc3nc2=O)cc1	inconclusive: 25.1 µM [inhibitor, partial curve]
COc1ccc(C(=NNc2ccccc2C(=O)O)c2ccc(OC)cc2)cc1	inconclusive: 17.8 µM [inhibitor, partial curve]
CCc1cc(C(N)=O)c(NC(=O)c2ccc(OC)cc2)s1	inconclusive: 39.8 µM [activator, single point]
O=C(CCSc1nnc2ccccn12)Nc1ccc2c(c1)OCO2	inconclusive: 22.4 µM [inhibitor, partial curve]
C=CCNC(=S)NNc1nc2c(c(=O)[nH]1)C1(CCCC1)Cc1ccccc1-2	inactive
COC(=O)[C@@]1(Cc2ccc(F)cc2)[C@H]2c3cc(C(=O)N(C)C)n(Cc4ccccn4)c3C[C@H]2CN1C(=O)c1ccccc1	inconclusive: 44.7 µM [inhibitor, single point]
C#CCOCCOCCOCCNc1nc(N2CCN(C(=O)Cn3cc(CC(C)O)nn3)CC2)nc(N2CCN(C(=O)[C@H]([C@@H](C)CC)n3cc(CCCN=C(N)N)nn3)CC2)n1 (some centres undefined)	inactive
CCOc1cccc(-c2nn(-c3ccccc3)cc2/C=C(/C#N)C(=O)NCCCn2ccnc2)c1	inconclusive: 31.6 µM [inhibitor, single point]

Structure (SMILES)	Potency
CCOC(=O)c1c(NC(=O)CC)sc(C(C)=O)c1C	inactive
COC(=O)c1ccc(C(=O)OCCCc2nc3ccc(N)cc3[nH]2)cc1	inconclusive: 25.1 µM [inhibitor, partial curve]
CCN(CC)S(=O)(=O)c1ccc(NS(=O)(=O)c2ccc(F)cc2)cc1	inactive
Oc1cc(Cc2ccccc2)cnc1CN1CCCCC1	inactive
CN1/C(=C/c2cc[n+](C)c3ccccc23)C=Cc2ccccc21	active: 7.08 µM
Clc1ccc(Nc2ncnc3c2cnn3-c2ccccc2)cc1	inconclusive: 20 µM [activator, partial curve]
Nc1nc(CSc2nc3ccccc3[nH]2)cs1	inconclusive: 25.1 µM [inhibitor, partial curve]
O=C(Nc1ccccc1N1CCOCC1)c1cc(-c2ccco2)nc2ccccc12	inconclusive: 28.2 µM [inhibitor, single point]
Cc1ccc(-n2c(Cc3noc4ccccc34)n[nH]c2=S)cc1	inactive
COc1ccccc1Nc1ncc(C(=O)Nc2ccc(OC)c(OC)c2)c2ccccc12	inconclusive: 12.6 µM [inhibitor, partial curve] and inconclusive: 14.1 µM [inhibitor, partial curve]
CCN(CC)C(=O)COc1ccc(/C(C)=N/NC(=O)c2ccccc2Br)cc1	inconclusive: 39.8 µM [inhibitor, single point]
O=C(Oc1ccnc2cc(Cl)ccc12)N1CCCCCC1	inconclusive: 22.4 µM [inhibitor, partial curve]
CCCOc1ccc(C2=NC(c3ccc(F)cc3)=Nc3ccc(OC)cc3N2)cc1	inconclusive: 14.1 µM [inhibitor, partial curve]
COC(=O)/C=C/CSC1=N/C(=C/c2ccc(-n3cncn3)cc2)C(=O)N1	inconclusive: 0.891 µM [inhibitor, full curve, poor fit]
COc1ccc(/C=N/NC(=O)c2ccc(CSc3nc(C)cc(C)n3)cc2)c(OC)c1OC	inconclusive: 25.1 µM [inhibitor, single point]
Cc1cccc2c1N(CCCOc1ccc(C(C)(C)C)cc1)C(=O)C2=O	inconclusive: 15.8 µM [inhibitor, partial curve]
Oc1ccccc1C1CC(c2cccs2)=NC(c2ccc(Cl)cc2)N1 (centres undefined)	inconclusive: 31.6 µM [inhibitor, partial curve]
S=C(NCc1ccco1)Nc1cccc(Cl)c1Cl	inactive
CC(C)OC(=O)CSc1nc(N)c(C#N)c(-c2ccco2)c1C#N	inconclusive: 15.8 µM [inhibitor, partial curve]
CN1C(=O)/C(=C/c2ccc(-c3ccccc3[N+](=O)[O-])o2)SC1=Nc1ccc(Cl)c(C(=O)O)c1	active: 14.1 µM
Cc1ccc(S(=O)(=O)N2CCC(C(=O)N[C@@H](C)C(=O)Nc3ccc4c(c3)OCO4)CC2)cc1	inconclusive: 20 µM [inhibitor, single point]
NC1=CC(=O)c2cccc3cccc1c23	active: 11.2 µM
